# Data as given in PubChem BioAssay AID894 (National Center for Advancing Translational Sciences (NCATS), 2007).
# About 6,500 (4.3%) of roughly 150,000 compounds were called active. The shares of active, inactive and inconclusive entries below differ from those in the screen. The call rests on the fitted dose curve; in most records, active means well fitted inhibition curve with a large enough effect (not every such curve was filed as active); inconclusive means small, poorly fitted or top-dose-only effect, or another doubt; inactive means no such curve, though single readings can be large or run the other way. No potency is given beside an inconclusive call; the fits are too rough.
# Molecular target: 15-hydroxyprostaglandin dehydrogenase [NAD(+)] (Homo sapiens) (UniProt P15428)
# UniProt P15428, sequence (P15428 whole entry, looked up): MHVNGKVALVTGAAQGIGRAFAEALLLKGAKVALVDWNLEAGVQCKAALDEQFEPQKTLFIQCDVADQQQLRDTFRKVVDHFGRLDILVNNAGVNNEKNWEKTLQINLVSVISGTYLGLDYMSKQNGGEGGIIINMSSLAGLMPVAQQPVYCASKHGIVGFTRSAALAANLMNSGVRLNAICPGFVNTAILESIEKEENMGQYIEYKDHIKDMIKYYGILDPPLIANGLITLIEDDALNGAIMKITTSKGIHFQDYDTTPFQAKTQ
# Test: qHTS Assay for Inhibitors of HPGD (15-Hydroxyprostaglandin Dehydrogenase)
# Conditions: purified HPGD, NADH fluorescence kinetic, PGE2 substrate; activity change, negative = inhibition: stronger effect = lower value
# Method in brief: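 20 nM HPGD preincubated 15 min at room temperature with compound in 50 mM Tris-HCl pH 8, 0.01% Tween 20. Started with 1 mM NAD+ and 30 uM prostaglandin E2; NADH fluorescence (360/450 nm) read 5 times over 30-s intervals, last minus first.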
# On the % scale 0 is the no-effect control and ±100 the full control effect; potency means the concentration at half of the fitted maximal effect; tags describe the fitted curve by direction and shape.
SMILES,Potency,"activity change, negative = inhibition"
CN(C(=O)Nc1ccc(Cl)c(Cl)c1)c1ccccc1C(=O)O,"inconclusive [inhibitor, partial curve]",–
O=C(COc1ccc2c(C(F)(F)F)cc(=O)oc2c1)NCc1cccs1,"inconclusive [inhibitor, partial curve]",–
CCOC(=O)c1c(C)n(C)c2ccc(OCC(O)CN3C(=O)c4ccccc4S3(=O)=O)cc12 (stereo unspecified),–,inactive: -15.8%
COc1ccc(-c2cc(C(F)(F)F)nc(SCC(=O)Nc3sc4c(c3C#N)CCC4)n2)cc1,"inconclusive [inhibitor, partial curve]",–
CCN(CC)S(=O)(=O)c1ccc2c(c1)nc(SCc1nc3ccsc3c(=O)[nH]1)n2CC,"inconclusive [inhibitor, partial curve]",–
O=C(CSc1ncccc1-c1nc2ccccc2[nH]1)NC1CC1,"inconclusive [inhibitor, single point]",–
CCOC(=O)c1nnn(CC(=O)Nc2ccccc2OC)c1C(=O)OCC,–,inactive: 6.74%
COc1ccc(C(=O)/C=C/N(C)C)cc1,active: 25.1 µM,–
CC1(C)CC(=O)C=C(NNC(=O)c2ccccc2)C1,"inconclusive [inhibitor, full curve, poor fit]",–
COc1cccc(Cn2nnc(C(=O)Nc3ccc(C)cc3)c2N)c1,–,inactive: -34%
N#Cc1c(Nc2ccc(F)cc2)sc(C(=O)c2ccc(F)cc2)c1N,"inconclusive [inhibitor, partial curve]",–
O=C1CN(C(=O)COC(=O)COc2ccc3c(c2)CCC3)c2ccccc2N1,active: 14.1 µM,–
Oc1ccccc1C1Nc2cccc3cccc(c23)N1,"inconclusive [inhibitor, partial curve]",–
O=C1CC(N2CCN(c3nc4ccccc4s3)CC2)C(=O)N1c1cccc(F)c1 (stereo unspecified),–,inactive: -22.8%
CC(=O)Nc1ccc(C(=S)NCc2ccco2)cc1,"inconclusive [inhibitor, single point]",–
N#CC1=C(N)SC(N)=C(C#N)C1CCC1CCCCC1,active: 15.8 µM,–
Cn1c2ccccc2c2c(C(=O)N3CCN(c4ccccc4)CC3)cn(C3CCCC3)c(=O)c21,"inconclusive [inhibitor, partial curve]",–
O=C(O)/C(Cc1ccc([N+](=O)[O-])cc1)=N/O,–,inactive: -7.13%
Cc1ccc2cc(C#N)c(N3CCCN(C(=O)C4CCCO4)CC3)nc2c1 (stereo unspecified),"inconclusive [inhibitor, partial curve]",–
CCCOC(=O)C1[C@H]2C(=O)N(CC3CCCO3)C[C@]23C=C[C@H]1O3 (stereo partly specified),–,inactive: -8.47%
CCN(CC(=O)Nc1ccc2c(c1)OCCO2)S(=O)(=O)c1ccc(C)cc1,–,inactive: -15.1%
COc1ccc(CN2CCn3ncc(C(=O)Nc4cc(C)cc(C)c4)c3C2=O)cc1,"inconclusive [inhibitor, partial curve]",–
CC(C)(C)NC(=O)Cn1c(SCC(=O)NC2CCCCC2)nc2ccccc21,–,inactive: -1.52%

SMILES,Potency,"activity change, negative = inhibition"
Oc1ccc2ccccc2c1C=Nc1ccc(N2CCOCC2)cc1,active: 20 µM,–
O=C(O)C(Oc1ccc2c3c(c(=O)oc2c1)CCC3)c1ccccc1 (stereo unspecified),"inconclusive [inhibitor, partial curve]",–
COc1ccc(N2CCN(C(CNC(=O)OCc3ccccc3)c3ccco3)CC2)cc1 (stereo unspecified),–,inactive: -10.4%
NC(N)=NC(=O)Cc1c(Cl)cccc1Cl,–,inactive: -5.56% [middle of 4 runs]
O=C(Nc1ccc2oc(=O)ccc2c1)c1ccco1,"inconclusive [inhibitor, partial curve]",–
Cc1ccc(S(=O)(=O)NC2=C(N3CCN(c4ccccc4F)CC3)C(=O)c3ccccc3C2=O)cc1,–,inactive: -11.1%
Cc1ccc(-c2csc3nc[nH]c(=S)c23)cc1,"inconclusive [inhibitor, partial curve]",–
COc1cccc(OC)c1C(=O)NC(=S)Nc1ccc2oc(=O)ccc2c1,–,inactive: -8.29%
COc1cc(C2CC(=O)Oc3ccc(O)cc32)cc(OC)c1OC (stereo unspecified),"inconclusive [inhibitor, single point]",–
Cc1cccc(C(=O)NCC2CCCO2)c1 (stereo unspecified),"inconclusive [inhibitor, single point]",–
CN(CC(=O)Nc1ccc(C(N)=O)cc1)CC(=O)Nc1ccccc1Cl,–,inactive: -4.63%
O=C(N/N=C/c1ccc2c(c1)OCO2)c1cc(-c2ccc(F)cc2)nc2ccccc12,"inconclusive [inhibitor, partial curve]",–
Cc1cc2nc(-c3ccc(SCC(=O)N4CCOCC4)nc3)[nH]c2cc1C,"inconclusive [inhibitor, partial curve]",–
COc1ccc(-c2nn3c(-c4ccccn4)nnc3s2)cc1OC,–,inactive: -10.1%
Cc1ccc2sc(NC(=O)CSc3nc(C)cc(C)c3C#N)nc2c1,"inconclusive [inhibitor, partial curve]",–
Cc1occc1C(=O)Nc1sc2c(c1C(N)=O)CCC(C(C)(C)C)C2 (stereo unspecified),"inconclusive [inhibitor, partial curve]",–
O=c1oc2ccccc2c2oc3cc(O)c(O)cc3c12,"inconclusive [inhibitor, partial curve]",–
COc1cccc2c1OCC/C2=N\NC(=O)COc1ccc(C)cc1,"inconclusive [inhibitor, partial curve]",–
CC(NC(=O)c1ccc(Cn2cc([N+](=O)[O-])cn2)o1)c1ccccc1 (stereo unspecified),–,inactive: -6.07%
CN(C)S(=O)(=O)N1CCN(C(=O)N2CCCCCC2)CC1,–,inactive: -11.6%
CCCC(=O)Nc1cccc(NC(=O)c2ccc3c(c2)OCO3)c1,–,inactive: -7.26%
Cc1ccc(O)c(C(=O)c2cnc3c(c2)CN(CCC(C)C)C(=O)N3)c1,–,inactive: -20.2%
COc1ccc(OC)c(/C=N/NC(=O)c2csc3ccccc23)c1,"inconclusive [inhibitor, partial curve, poor fit]",–
